Numbering of substitutions follows the chain as printed. Some of the results follow.
T1: UNK ZnF1-3 (human, UniProt Q9C0B0 31-174)
T1 sequence: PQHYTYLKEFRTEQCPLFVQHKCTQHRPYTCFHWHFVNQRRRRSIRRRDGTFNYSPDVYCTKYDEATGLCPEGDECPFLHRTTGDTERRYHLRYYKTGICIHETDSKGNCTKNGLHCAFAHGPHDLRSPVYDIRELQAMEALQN

B1: 45735942_45738520_1019_CDS_ENSG00000108424_ENST00000290158|human|control|control (ssRNA)
RNA: GGGAGUUCUACAGUCCGACGAUCUUCACAGACCACCUGCAUAAUAAAGUGCCUUUCAGACUCUUUAUCAAAGUUUGCUUUGGUGAACUCCAAUGAGUUCAGGAGUGCAUUCGUAGCAGCUAGCUUCACAUUAUUACUAGGCUCCAACAGAGGAUUGAGCAUCA
B2: chrX:69798090:69798091:-_ENSMUSG00000031343_ENSMUST00000055966|mus_mus|mus_mus_mus_hu_False|38_38 (ssRNA)
RNA: GGGAGUUCUACAGUCCGACGAUCAAGUCCCCGGGUUCUUGUCGUCUUGAUUCCCCUUGACCAGUGGUUCCAGGGAGAAUAUUAAUCAGGAAAAGAAGUACAACUCUGGUCAUGUAACAGUGACUUGUUUGUGUGAUUAUCAUCCAACAGAGGAUUGAGCAUCA
B3: chr7:75956504:75956505:-_ENSG00000170027_ENST00000307630|hu_hu|motif|central (ssRNA)
RNA: GGGAGUUCUACAGUCCGACGAUCAUAUAACUGCAUGUCACUAUAGCAACAUCCAAAACAGAUCAAUUUGUUACAAUCACGGUUUGGUAGAGCAAACUUUACCCCCAAAAGGAAAAAUUAAAUUAAAAAAAAAAAACCUUUAAACAACAGAGGAUUGAGCAUCA
B4: chr14:76904430:76904431:+_ENSMUSG00000022010_ENSMUST00000022587|mus_mus|mus_mus_mus_hu_True|18_88 (ssRNA)
RNA: GGGAGUUCUACAGUCCGACGAUCUGCAGCCAAAAACACCCUCGUGGCGGGAGGGAGGGAACACCAGCAGCCUUGUAUAAGCUAGAUAAAAUCUUCUGGCUUUCCGCAGCCCAGGGAGUGAGAACGGACGGCAGCCCUAAUUUACAACAGAGGAUUGAGCAUCA
B5: chr2:42509997:42509998:+_ENSG00000143924_ENST00000318522|hu_mus|hu_hu_hu_mus_True|88_88 (ssRNA)
RNA: GGGAGUUCUACAGUCCGACGAUCUCGCUGAGUCCUCUCCUCAUAAUUAAAUAGUACUACCACUGAGGCGAUAAAAUAAACUAUCUCCCCUGUGGGAAGCAGGUAUACAUUCGCUCUACAGUCCUUUCCUCGAUAACCGUAUACCAACAGAGGAUUGAGCAUCA
B6: 91712627_91712747_8597_CDS_ENSG00000127914_ENST00000356239|human|control|control (ssRNA)
RNA: GGGAGUUCUACAGUCCGACGAUCUAAAUUAAUUUGUAUUCCUGCAUUUUUAACAAGAAUUUGUGGAGUCUGAUUGCUGCUACUGAUCUUCAGAGUCCCAUCUGUCUGGGAUGCAAUGCUCUUACUCAGUUUUAUAGGAAGUGGCAACAGAGGAUUGAGCAUCA
B7: chr14:103803487:103803488:+_ENSG00000100664_ENST00000558506|hu_hu|motif|central (ssRNA)
RNA: GGGAGUUCUACAGUCCGACGAUCGAGUUUAUGAUGUGUGUCAAGCAUGCCUCGAUAGCCACAGGCUUUACAAGAAUUACCGGUUGUUUGCUUCUUUGGAUUGACAUGCAAAUCUGUUUCAGGAUUCUCACAUUCAGGACAGAGCAACAGAGGAUUGAGCAUCA
B8: chr15:98781125:98781126:-_ENSMUSG00000072235_ENSMUST00000097014|mus_mus|FALSE|FALSE (ssRNA)
RNA: GGGAGUUCUACAGUCCGACGAUCAACAUUCAGGGCCCCAUCAAAUCUGAGGGAAGCAGUGAUGGAAGACACAAUUUGACCUAUCAACCUGUUUAGGUUAGUGUAGGUUGGGCGCUCAAUGUCGAGGUUUCUACGACAGAUAUCCAACAGAGGAUUGAGCAUCA
B9: chr5:37680062:37680063:+_ENSMUSG00000029121_ENSMUST00000031004|mus_hu|mus_mus_mus_hu_False|38_38 (ssRNA)
RNA: GGGAGUUCUACAGUCCGACGAUCUUUGGGUGUAGCUGGUACCUCGUACACAGGACCGUCAUACAUGCCCCUGGAAACCCCUUGCAAUCCAAAAACCUUGCUUCUGAUUUUGACGCGCUGGUACAGGUGCUCCGGGAACGCCUUCAACAGAGGAUUGAGCAUCA
B10: chr1:109605286:109605287:-_ENSG00000197780_ENST00000461096|hu_mus|hu_hu_hu_mus_True|8_68 (ssRNA)
RNA: GGGAGUUCUACAGUCCGACGAUCAAGUUUCAGAGUAACAUUCAGUAACCUCUUUAAAUGCAAUUAUCCUUACUUUAAGCUAAGCAGAAUAAUAAUUUAAUACCGUAAGUGAACUACACACAAAGCCGUGUAUUCAGAAAUGGUCAACAGAGGAUUGAGCAUCA
B11: 44559305_44559425_1238_CDS_ENSMUSG00000032096_ENSMUST00000034607|mouse|control|control (ssRNA)
RNA: GGGAGUUCUACAGUCCGACGAUCCGGAAUAAAAGAUUCCUCUGUUGUUUGUAGUCUCCACUUUAGUACCCCUACAUCACUGUUGACUGGAAAUGACUUCUCUGGGUUUUUCAAGCCAAUGAGAGACUCUGCAGUAAAAAGUUUCAACAGAGGAUUGAGCAUCA
B12: chr9:21819513:21819514:-_ENSMUSG00000003410_ENSMUST00000003501|mus_mus|FALSE|FALSE (ssRNA)
RNA: GGGAGUUCUACAGUCCGACGAUCUGAACUUUUUAUUUUCUGGCAUGAAAAGUACAAAUAGUUAAAGAAUCCCAUGUAAAAGUCAGUUACCGCGGCCAGGCCUGGGGCUCGGUAAGAAAUGUCUAACGCAACUUGAAGUGUUCUCAACAGAGGAUUGAGCAUCA
B13: chr6:86333760:86333761:-_ENSG00000135316_ENST00000355238|hu_mus|hu_hu_hu_mus_True|78_78 (ssRNA)
RNA: GGGAGUUCUACAGUCCGACGAUCUUCCUCAAGAAUCUGCUCCUUGGUUUUACUCUUAGGAAUAGAGCCCACAAAAAGCCUAUUGUUGGCAACUGAGAUGCAGACACCAAUGUGCUUCCCGGAACGAAUUUCAUGAUUAUUAUACAACAGAGGAUUGAGCAUCA
B14: chr5:32599118:32599119:+_ENSG00000113387_ENST00000502897|hu_hu|motif|central (ssRNA)
RNA: GGGAGUUCUACAGUCCGACGAUCAGAAAUACCUUUUCUUCCUGGUUUCAUUUCACCUUCAGGAUCCAUCCAAUAUUCUCGGAUAUCAAUUAGCACUUUGCCUUUAAAAUCGCGAACACUAACGUACCUCAUUUUCCCAAUCUGCAACAGAGGAUUGAGCAUCA
B15: chr2:42509997:42509998:+_ENSG00000143924_ENST00000318522|hu_mus|hu_hu_hu_mus_True|48_108 (ssRNA)
RNA: B5 RNA with C33U, U51C, U54G, U90G, G93C
B16: chr1:60041781:60041782:+_ENSMUSG00000041040_ENSMUST00000036540|mus_hu|mus_mus_mus_hu_False|88_88 (ssRNA)
RNA: GGGAGUUCUACAGUCCGACGAUCAAGUUUACAAUAGUAAAGUAAAUCAAAUUUAGUCAAAUUUUCUUUUAUUUUCCUUCACAAAAGAAAAUCUUUAUAACCCAGUCCUAGUCUUGGACAUAGUGAAAGCUAUAAAUUCUGACUCAACAGAGGAUUGAGCAUCA
B17: chr11:115359427:115359428:-_ENSMUSG00000020737_ENSMUST00000021083|mus_hu|FALSE|FALSE (ssRNA)
RNA: GGGAGUUCUACAGUCCGACGAUCUGCAGUUCACAAGCAUGGAGGAAACAGACAGAACGACAGCGUUCAGGACAGUCAGAGCUAACCCAAGACGAGGCUGGACUUGCCGCCAGGGGGAUUUCUUCUGGAUGGCACUGGGGCCGGCAACAGAGGAUUGAGCAUCA
B18: chr11:46405157:46405158:+_ENSG00000110492_ENST00000395566|hu_hu|hu_hu_hu_mus_False|28_48 (ssRNA)
RNA: GGGAGUUCUACAGUCCGACGAUCCCCUCCCCACUUUGGGCACUUGGUGUGGGCGUGAGAGGACAGGCGUGAUUGACAGAGCUGACAAGCAGACAGAAGGCACUGGUGGGUCACAUCUUGGGCCUGUGGGAGAGGAGGGCUCCGCAACAGAGGAUUGAGCAUCA
B19: 35579135_35579255_1938_CDS_ENSG00000197056_ENST00000373330|human|control|control (ssRNA)
RNA: GGGAGUUCUACAGUCCGACGAUCUUGUGAAUUCAUAAGUCGAAAUGUUUCUUCUCCUUUAUCUUUUGCUCUCAUUUCUAACAAUUCUAAAAAAUUGCCUUUAUUCACAGAUGAAACUGACUGGUCGUUUCCUCUUAAGGGUAACAACAGAGGAUUGAGCAUCA
B20: chr9:14812383:14812384:-_ENSMUSG00000031934_ENSMUST00000164273|mus_mus|mus_mus_mus_hu_True|38_98 (ssRNA)
RNA: GGGAGUUCUACAGUCCGACGAUCAUAGCCCAGGUAGAUACAUGCCAACAGUAUAAUGAUGAGUGUCAGCAGGCGGCAGCUAAUGUACUUGAUGAUUAAAUGACUAGAAUUUUUCUUUGUCUUCAAGUACUGCUCCACAAUUGGCAACAGAGGAUUGAGCAUCA
B21: chrX:130830059:130830060:+_ENSMUSG00000033578_ENSMUST00000037687|mus_hu|motif|central (ssRNA)
RNA: GGGAGUUCUACAGUCCGACGAUCGGGCCACAAUAGUUACGGUUCUGGGGGAUGCCAUGGGGUCGCCAAGGCAGGUCCCAACGGAUCCUUCUGAUUUGCGCACCCGCUCUGUCCAAGGUGCAGGCAGUUAGCACAGGGAGAGCUCAACAGAGGAUUGAGCAUCA
B22: chr2:42509997:42509998:+_ENSG00000143924_ENST00000318522|hu_hu|motif|central (ssRNA)
RNA: GGGAGUUCUACAGUCCGACGAUCUCGCUGAGUUCUCUCCUCAUAAUUAAAUAGUACUACUACUGAUGCAAUGAAAUAAACGGUUUUCCCGGUCGGAAGAAGGUAAACAUUAGCUCUACAGUCCUUUCCUCGAUAACCAUAUGCCAACAGAGGAUUGAGCAUCA

Molecular target: T1, UNK ZnF1-3
Assay: nsRBNS (natural sequence RNA bind-n-seq); RBNS binding buffer (assumed for nsRBNS): 25 mM Tris pH 7.5, 150 mM KCl, 3 mM MgCl2, 0.01% Triton X-100, 500 ug/ml BSA, 20 U/ml SUPERase-In, 4 C; UNK is unkempt and MSI1 is Musashi-1; names of the RNAs are library labels; protein concentration not given here; high values mean tight binding

| Binder | binding signal |
| --- | --- |
| B1 | 0.609 enrichment R |
| B2 | 0.71 enrichment R |
| B3 | 3.1 enrichment R |
| B4 | 1.79 enrichment R |
| B5 | 1.73 enrichment R |
| B6 | 0.938 enrichment R |
| B7 | 1.48 enrichment R |
| B8 | 1.13 enrichment R |
| B9 | 0.716 enrichment R |
| B10 | 0.462 enrichment R |
| B11 | 0.922 enrichment R |
| B12 | 0.928 enrichment R |
| B13 | 1.14 enrichment R |
| B14 | 0.699 enrichment R |
| B15 | 1.13 enrichment R |
| B16 | 0.563 enrichment R |
| B17 | 1.71 enrichment R |
| B18 | 2.04 enrichment R |
| B19 | 0.521 enrichment R |
| B20 | 1.25 enrichment R |
| B21 | 0.83 enrichment R |
| B22 | 1.03 enrichment R |

From article PMC12136788
